This note sets out measurements from ChEMBL document CHEMBL4888484, “Replenishing the malaria drug discovery pipeline: Screening and hit evaluation of the MMV Hit Generation Library 1 (HGL1) against asexual blood stage Plasmodium falciparum ,using a nano luciferase reporter read-out” (2022).

SMILES strings stand for the structures. In all, about 150,000 compounds went through this assay and about 540 (0.36%) showed an effect of 50% or more. This is one part of the list.

The subject of the assay is Plasmodium falciparum. In words: Primary screen in NF54 nanoGlo assay, in single point, at 2uM, 72h; a lower Z score goes with more inhibition. Format: functional, Erythrocyte. To be noted: timepoint 72 hour.
As a reminder, the % Inhibition is the change of the read-out against control, counted positive when it falls. For the compound `COCc1ncc(C)n1[C@H]1CCCN(C(=O)c2cnccc2C)C1`, the “% Inhibition” value is on record as -14% and the Z score is on record as 1.72.
With `O=C1NC(=O)[C@H](CCC(=O)N(Cc2ccco2)C2CC2)N1`, the “% Inhibition” value is -9% and the Z score is 1.67.
Consider `O=C(c1c[nH]c2ccccc12)N1CCN(S(=O)(=O)c2ccc3ccccc3c2)CC1`, for which the “% Inhibition” value is -15% and the Z score was 1.35.
Regarding `COCCC1(c2noc(C3(C#N)CCCCC3)n2)CCCC1`, the “% Inhibition” value came to 1% and the Z score is recorded as -0.13.
In the case of `CC[C@@H]1C(=O)NCCCN1C(=O)c1cccc2c1ccn2CC(C)C`, the “% Inhibition” value was -2% and the Z score stood at 0.26.
In the case of `CC[C@H](C)n1ncc(NC(=O)C(C)(C)C2CCC2)c1C`, the “% Inhibition” value worked out at 0% and the Z score stood at 0.
As for `Fc1ccc(-n2nc(Cn3cncn3)nc2C[C@H]2CNCCO2)cc1Cl`, the “% Inhibition” value was -7% and the Z score was determined as 1.23.
Consider `CCOC(=O)c1cnn(-c2cccc(NS(=O)(=O)c3cc(C)ccc3O)c2)c1C(F)(F)F`, for which the “% Inhibition” value is -6% and the Z score is 0.66.
For the compound `O[C@H](COc1ccccc1-c1cccnc1)CN1CCOCC1`, the “% Inhibition” value is -10% and the Z score is listed as 1.54.
As to `O=C(CCC(=O)N1CCCN(c2nc3cccnc3s2)CC1)Nc1ccccc1Cl`, the “% Inhibition” value is reported as -14% and the Z score is recorded as 1.41.
For the compound `O=C(NCC[C@H](O)c1ccoc1)C(=O)NCc1ccc(F)cc1`, the “% Inhibition” value is recorded as -8% and the Z score came to 0.97.
Taken in the same sequence, the figures for `O=S1(=O)CC[C@H](CNc2ccc3ccc(Cl)c(Cl)c3n2)C1` were -16% and 1.42.
As to `COc1cc(NC(=O)CN2CCC3(CC2)N=C(c2ccccc2)C(=O)N3)cc(OC)c1`, the “% Inhibition” value is -15% and the Z score turned out to be 1.42.
Regarding `CN1CCCN(C(=O)C(=O)Nc2ccccc2Br)CC1`, the “% Inhibition” value is listed as -1% and the Z score was determined as 0.15.
On to `O=C(C(F)F)N(Cc1cccnc1)c1ccc(F)cc1`, for which the “% Inhibition” value was -34% and the Z score is given as 3.98.
`C[C@]1(c2nc(COc3cccc(Cl)c3)nn2CCO)CCCNC1`: the “% Inhibition” value is -4% and the Z score came out at 0.78.
Regarding `Cc1ccc(CNC(=O)C2CCCCC2)s1`, the “% Inhibition” value turned out to be 6% and the Z score is recorded as -1.22.
`CCCNC(=O)[C@H]1CCCN(C(=O)c2nnc(C(=O)Nc3cccc(Cl)c3)s2)C1`: the “% Inhibition” value is 7% and the Z score is -1.
For `CCc1ncc(S(=O)(=O)N2CCCC[C@H]2c2nnc[nH]2)s1` the same measures were 5% and -0.88.
Taken in the same sequence, the figures for `CCCCN(C(=O)c1cccc[n+]1[O-])[C@@H](CC)c1ccccc1` were 1% and -0.08.
Turning to `CS(=O)(=O)NCc1ccc(C(N)=O)cc1`, the “% Inhibition” value is listed as -4% and the Z score amounted to 0.51.
Consider `Nc1nnc(CCCn2cc(-c3ccc4ccccc4c3)nn2)s1`, for which the “% Inhibition” value was 6% and the Z score is on record as -0.8.
For `CN(C(=O)[C@H]1CC12CC2)c1ccc(F)cn1`, the “% Inhibition” value is reported as -17% and the Z score was 1.47.
`O=C(Nc1nnc2ccccn12)c1ccc(-c2ccccc2F)s1`: the “% Inhibition” value is given as -6% and the Z score was 1.
With `Cc1ccc(-n2nc3c(=O)n([C@@H](C)C(=O)NCc4cccc(F)c4)nc(C)c3c2C)cc1`, the “% Inhibition” value is on record as 16% and the Z score was -1.81.
Take `CON(C)C(=O)c1ccnc(OCC2CCOCC2)c1`: the “% Inhibition” value was -9% and the Z score is recorded as 1.68.
For `CC1(C)C(NC(=O)Cc2cccc(O)c2)C2CCCOC21` (centres undefined), the “% Inhibition” value is given as -6% and the Z score is on record as 0.6.
For `COCC1CCN(C(=O)c2nnn(-c3ccc(F)c(F)c3)c2C)CC1` the same measures were -12% and 1.32.
For `CC(C)n1nccc1C(=O)NCCc1ncc[nH]1`, the “% Inhibition” value was -10% and the Z score is 0.94.
As to `COc1ccc(S(=O)(=O)Oc2ccc(Oc3ncc(Cl)cc3Cl)cc2)cc1OC`, the “% Inhibition” value is reported as -17% and the Z score came to 2.24.
As to `CC(C)N(Cc1cnn(C)c1)C(=O)C[C@H]1C(=O)NCCN1Cc1cccc2ccccc12`, the “% Inhibition” value is reported as -3% and the Z score is 0.41.
With `O=C(NCC[C@H](O)C1CC1)c1cccs1`, the “% Inhibition” value is given as -7% and the Z score is reported as 0.95.
As for `COCCNC(=O)c1nnn2c1c(=O)[nH]c1cc(C)ccc12`, the “% Inhibition” value amounted to 2% and the Z score is recorded as -0.29.
For `COC1CCCN(C(=O)CC2(c3ccccc3)CC(=O)N(Cc3cccnc3)C2=O)C1` (centres undefined), the “% Inhibition” value came out at 1% and the Z score was -0.09.
Consider `CCOc1ccc(Cl)cc1CN(C)Cc1cc2n(n1)CCCNC2`, for which the “% Inhibition” value is -14% and the Z score was found to be 1.39.
As for `CS(=O)(=O)N1CCN(C(=O)COc2ccc(OCc3ccccc3)cc2)CC1`, the “% Inhibition” value worked out at 1% and the Z score is recorded as -0.13.
Taken in the same sequence, the figures for `Cc1cnc(NC(=O)c2ccccc2C(=O)c2ccc(Cl)cc2)s1` were 35% and -3.36.
As to `CCn1cc(C2(c3cn(CC)c4ccccc34)C(=O)Nc3ccccc32)c2ccccc21`, the “% Inhibition” value came to 0% and the Z score is -0.02.
As to `Cc1cncc(=O)n1CC(=O)N(C1CCCC1)[C@H]1CCS(=O)(=O)C1`, the “% Inhibition” value is reported as -12% and the Z score was found to be 1.39.
Take `COC[C@H]1[C@H](NS(=O)(=O)c2cccc3nn(C)nc23)[C@H]2CCO[C@H]21`: the “% Inhibition” value is recorded as -17% and the Z score is 2.41.
Turning to `COc1ccccc1CCC(=O)N1CCC2(CCC(=O)N(CC3CC3)CC2)CC1`, the “% Inhibition” value is -2% and the Z score came to 0.25.
As for `O=C(NCC1(c2ccccc2Cl)CCOCC1)N1CCOCC1`, the “% Inhibition” value is listed as -4% and the Z score is on record as 0.54.
